The whole screen tested about 280,000 compounds, of which about 100 (0.036%) were called active. The inconclusive results got no clear call from the source; some entries with a clear call stand among them for comparison. Calls follow the shape of the dose curve; as a rule, active = well fitted inhibition curve with a large enough effect in the signal ratio, with a control signal flat (not every such curve was filed as active); inconclusive = small, poorly fitted or top-dose-only effect, or effect the other way, or a change in a side signal; inactive = no such curve, though single readings can be large or run the other way; the % refers to the signal ratio. A potency beside an inconclusive call is a rough fit, not a confirmed value. “Side channel” marks fits to a control or component signal instead of the main read-out.
Target: Muscleblind-like protein 1 (Homo sapiens) (UniProt Q9NR56)
UniProt Q9NR56, sequence (Q9NR56 whole entry, looked up): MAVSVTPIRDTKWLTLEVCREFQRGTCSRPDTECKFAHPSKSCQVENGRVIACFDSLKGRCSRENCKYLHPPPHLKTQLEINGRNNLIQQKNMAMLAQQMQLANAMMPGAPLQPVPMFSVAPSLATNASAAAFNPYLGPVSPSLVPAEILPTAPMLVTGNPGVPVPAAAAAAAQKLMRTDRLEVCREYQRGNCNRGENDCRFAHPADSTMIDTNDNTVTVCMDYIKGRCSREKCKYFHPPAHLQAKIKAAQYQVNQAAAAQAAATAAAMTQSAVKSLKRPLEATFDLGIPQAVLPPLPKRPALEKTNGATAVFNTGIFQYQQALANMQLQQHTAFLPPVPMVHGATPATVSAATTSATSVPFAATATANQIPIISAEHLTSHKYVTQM
Experiment: qHTS Assay for Inhibitors of MBNL1-poly(CUG) RNA binding
Settings: TR-FRET MBNL1-His/biotin-(CUG)12 binding, 665/545 ratio; activity change, negative = inhibition: at 57.5 µM (top of the series)
Summary of the method: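 MBNL1-His + Biotin-(CUG)12, cpd titration 92 nM–58 uM; Tb anti-His Ab 0.055 ng/ul, SA-XL665 5 nM (final); 60 min RT; ratiometric 665/545 nm, Ex 340 nm; normalized to buffer and full-complex controls.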
% is scaled to controls: 0 for no effect and ±100 for the full control effect; potency is read from the fitted curve at half-maximal effect; tags tell the direction and shape of the fitted curve or compound fluorescence and quenching.

Row | SMILES | Potency | activity change, negative = inhibition
1 | Nc1c(-c2ccc(Cl)cc2)cnn1-c1cccc([N+](=O)[O-])c1 | inconclusive: 2.82 µM [quencher, side channel, full curve] | –
2 | COc1ccc(/C=C/C(=O)NC(=S)NNC(=O)c2ccco2)cc1 | – | inactive: 6.85%
3 | CCOC(=O)C(=O)N=Nc1c(O)n(C)c2ccccc12 | inconclusive: 4.47 µM [quencher, side channel, full curve] | –
4 | CCOCCCNC(=O)c1ccc(N2CC3CC(C2)c2cccc(=O)n2C3)c(NC(=O)Nc2cccc(OC)c2)c1 (configuration not stated) | – | inactive: -4.5%
5 | O=C(Nc1cccc(S(=O)(=O)N2CCOCC2)c1)[C@@H]1CCCN1S(=O)(=O)c1ccc(Cl)cc1 | – | inactive: -21.6%
6 | CCCOC(=O)c1ccc(OCC(O)CN2CCN(C(=O)c3ccccc3)CC2)cc1 (configuration not stated) | – | inactive: -25.5%
7 | CCCn1c(O)c2ccc(C(=O)N=NC(=O)c3cccnc3)cc2c1O | inconclusive: 20 µM [quencher, side channel, partial curve] | –
8 | COC(CNC(=O)c1ccc2c3c(onc13)-c1ccccc1C2=O)OC | inconclusive: 2.82 µM [quencher, side channel, full curve] | –
9 | O=C(c1ccc(N2CCCC2)c([N+](=O)[O-])c1)N1CCN(CCO)CC1 | inconclusive: 11.2 µM [quencher, side channel, partial curve] | –
10 | CCCn1c(=N)c(C#N)cc2c(=O)n3cccc(C)c3nc21 | inconclusive: 28.2 µM [quencher, side channel, partial curve] | –
11 | CCOC(=O)c1oc2nc(C(C)C)c3c(c2c1N)CCC3 | inconclusive: 35.5 µM [quencher, side channel, single point] | –
12 | NC(=O)SCC(=O)Nc1ccc(Cl)cc1 | – | inactive: 2.01%
13 | Cc1ccc(C2=Nc3ccccc3SC(c3cccc([N+](=O)[O-])c3)C2)cc1 (configuration not stated) | – | inactive: 6.65%
14 | CCOC(=O)C1=C(C)NC(=O)NC1c1ccc([N+](=O)[O-])o1 (configuration not stated) | inconclusive: 15.8 µM [quencher, side channel, partial curve] | –
15 | Cc1ccc(NS(=O)(=O)c2c(C)[nH]c(=O)[nH]c2=O)c(C)c1 | – | inactive: -4.74%
16 | O=C(COC(=O)c1cccs1)NCCC1=CCCCC1 | – | inconclusive: -12.1% [phenotype inactive]
17 | CCN(CC)C(=O)Cn1c(C)c(/C=C/c2cc[n+](C)cc2)c2ccccc21 | inconclusive: 17.8 µM [quencher, side channel, partial curve] | –
18 | COc1ccc2nc(NCCNC(=S)NCCCN3CCOCC3)c(C#N)cc2c1 | inconclusive: 22.4 µM [quencher, side channel, partial curve] | –
19 | CC(C)n1cc(CN2CCC(C(=O)Nc3ccc(Oc4ccccc4F)cc3)CC2)cn1 | – | inactive: -7.53%
20 | CC(=O)c1ccc(Sc2ccccc2N)c([N+](=O)[O-])c1 | inconclusive: 15.8 µM [quencher, side channel, partial curve] | –
21 | COc1cc(C(O)P(=O)(OC(C)C)OC(C)C)cc(OC)c1OC (configuration not stated) | inconclusive: 0.891 µM [fluorescent, side channel, single point] | –
22 | CC(/C=N/NC(=O)c1ccc(Cn2cc([N+](=O)[O-])cn2)o1)=C\c1ccccc1 | inconclusive: 31.6 µM [quencher, side channel, single point] | –
23 | CCCCc1nnc(NC(=O)C=C(C)C)s1 | inconclusive: 2.82 µM [fluorescent, side channel, partial curve, poor fit] | –

Row | SMILES | Potency | activity change, negative = inhibition
24 | CCOc1ccc(-c2ccc(NS(=O)(=O)c3cc([N+](=O)[O-])c(C)c([N+](=O)[O-])c3)cc2)nn1 | inconclusive: 28.2 µM [quencher, side channel, single point] | –
25 | COc1ccc(-n2nc(C(=O)NCC(=O)NCc3ccco3)c3ccccc3c2=O)cc1 | inconclusive: 14.1 µM [quencher, side channel, partial curve] | –
26 | CC(=O)NC(=S)NNC(=O)CCc1ccccc1 | – | inactive: 3.08%
27 | CC(C)(C)c1oc(C(=O)O)cc1CN1CCOCC1 | – | inactive: 4.28%
28 | Cc1ccc(NC(=S)Nc2ccc3[nH]c(=O)[nH]c3c2)cc1 | – | inactive: -1.89%
29 | CCc1ccc(/C=C2\SC(N3CCCC3)=NC2=O)cc1 | inconclusive: 12.6 µM [quencher, side channel, partial curve] | –
30 | Cc1ccc(-n2nc3ccc(NC(=O)c4ccc5c(c4)OCO5)cc3n2)cc1 | – | inactive: 14.4%
31 | Nc1n[nH]c(N)c1N=Nc1ccc(F)cc1 | inconclusive: 20 µM [quencher, side channel, partial curve] | –
32 | Oc1c(CN2CCCCC2)cc(Br)c2cccnc12 | – | inactive: 21.1%
33 | O=C(Cc1ccccc1)NCCC1=CCCCC1 | – | inactive: 18.2%
34 | Cc1ccc(S(=O)(=O)NNC(=O)CCC(=O)Nc2ccccc2Cl)cc1 | – | inactive: -4.21%
35 | COc1cc(/C=N/N=C/c2cc(OC)c(O)c(OC)c2)cc(OC)c1O | inconclusive: 25.1 µM [quencher, side channel, partial curve, poor fit] | –
36 | CC(C)(C)c1ccc(NC(=O)C2CCCN(c3cnccn3)C2)cc1 (configuration not stated) | – | inactive: -0.0377%
37 | CCC(C)(C)NC(=O)c1ccc2c(c1)S(=O)(=O)c1ccccc1C2=O | inconclusive: 12.6 µM [quencher, side channel, partial curve] | –
38 | COc1ccccc1-c1c(C)oc2c(CN3CCN(C)CC3)c(O)ccc2c1=O | inconclusive: 0.562 µM [quencher, side channel, single point] | –
39 | CC(Cc1ccccn1)NC(=O)c1ccc(OC2CCN(CCc3ccccc3)CC2)cc1 (configuration not stated) | – | inactive: -3.99%
40 | COCCNc1ccc([N+](=O)[O-])cc1C(=O)Nc1cccc(C)n1 | inconclusive: 10 µM [quencher, side channel, partial curve] | –
41 | O=C(NNc1ccc([N+](=O)[O-])cc1)c1ccccc1F | inconclusive: 14.1 µM [quencher, side channel, partial curve] | –
42 | CCOC(=O)c1c(NC(=O)c2ccncc2)sc(C)c1C | – | inactive: -0.167%
43 | CC(/C=N/NC(=O)c1ccco1)=C\c1ccccc1 | inconclusive: 28.2 µM [quencher, side channel, single point] | –
44 | CC(C)(C)n1nnnc1C(c1ccc(C(F)(F)F)cc1)N(Cc1ccccc1)Cc1ccco1 (configuration not stated) | – | inactive: 0.75%
45 | Nc1cc2c([N+](=O)[O-])cccc2o1 | inconclusive: 14.1 µM [quencher, side channel, partial curve] | –
46 | Cc1c(Br)c([N+](=O)[O-])nn1CC(=O)NCc1ccccc1 | inconclusive: 31.6 µM [quencher, side channel, partial curve] | –

Row | SMILES | Potency | activity change, negative = inhibition
47 | C/C(=N\NC(=O)c1ccccc1O)c1ccc(Br)s1 | inconclusive: 15.8 µM [quencher, partial curve] | –
48 | Cc1ccccc1N1CCN(C(=O)NCc2cccc(Cl)c2)CC1 | inconclusive: 6.31 µM [fluorescent, side channel, single point] | –
49 | CCc1ccc(N=C2NC(=O)/C(=C/c3cc(Br)c(OCC(=O)O)c(OC)c3)S2)cc1 | – | inactive: -8.67%
50 | Cc1ccccc1Nc1c(-c2ccccn2)nc2c(C)cccn12 | – | inactive: 44.6%
51 | O=C(NCc1ccco1)c1ccc2c(c1)C(=O)c1ccccc1-2 | inconclusive: 11.2 µM [quencher, side channel, partial curve] | –
52 | O=C(O)Cc1ccc(N=Nc2c(O)c(C(=O)O)cc3ccccc23)cc1 | inconclusive: 15.8 µM [quencher, partial curve] | –
53 | CCOC(=O)N1CCN(c2c(N3CCc4ccccc4C3)c(=O)c2=O)CC1 | inconclusive: 28.2 µM [quencher, side channel, single point] | –
54 | O=C(CSc1ncnc2sc3c(c12)CCCC3)c1ccccc1 | – | inactive: 17.6%
55 | Cc1ccc(O)c(NC(=S)NC(=O)Cc2ccc(Cl)cc2)c1 | – | inactive: 2.15%
56 | NC(N)=Nc1nc2cc([N+](=O)[O-])ccc2o1 | inconclusive: 15.8 µM [quencher, side channel, partial curve] | –
57 | Cn1nc(-c2ccc(NCCO)c([N+](=O)[O-])c2)c2ccccc2c1=O | inconclusive: 3.16 µM [quencher, full curve] | –
58 | Cc1cc(N2C(=O)C3C4CC(C(Br)C4Br)C3C2=O)no1 (configuration not stated) | inconclusive: 28.2 µM [fluorescent, side channel, partial curve] | –
59 | CC(=O)Nc1cccc2c1C(=O)N(c1ccccc1C)C2=O | inconclusive: 22.4 µM [quencher, side channel, single point] | –
60 | Cc1ccccc1OCc1nc2ccccc2c(=O)n1/N=C/c1ccco1 | – | inactive: 7.99%
61 | O=[N+]([O-])c1ccccc1S(=O)(=O)Nc1ncccn1 | inconclusive: 15.8 µM [quencher, side channel, partial curve] | –
62 | CNC(=O)c1c(NC(=O)c2cccc(N3C(=O)CCC3=O)c2)sc2c1CCC2 | inconclusive: 15.8 µM [quencher, side channel, partial curve] | –
63 | O=C(COC(=O)c1cccc(Br)c1)Nc1cccc2c1C(=O)c1ccccc1C2=O | inconclusive: 25.1 µM [quencher, side channel, partial curve] | –
64 | CC(C)(C)c1nc2c(C#N)c(-c3ccc(Cl)cc3)ccn2n1 | inconclusive: 14.1 µM [quencher, side channel, partial curve] | –
65 | COC(=O)CCC(=O)OC1(C)C(=O)C=C2C=C3CCCN3C=C2C1=O (configuration not stated) | inconclusive: 17.8 µM [quencher, side channel, partial curve] | –
66 | S=C(NNc1cccc(Cl)c1)NC1CCCCC1 | – | inactive: -10.4%
67 | COc1cc(NC(=O)COC(=O)CNC(=O)c2cc(C)cc(C)c2)c(C)cc1[N+](=O)[O-] | inconclusive: 31.6 µM [quencher, side channel, single point] | –

From PubChem BioAssay AID2675 (National Center for Advancing Translational Sciences (NCATS), 2010)
